According to the supplement of paper PMC3334620:
The full ranking holds about 33,000 sequences; the median of “E-score (-0.5 to 0.5)” is about -0.013, and the highest 2% start at about 0.3. This is one part of the list.

target: T1, Msn1 (UniProt P22148); test: PBM E-score (8-mer binding enrichment) (E-score (-0.5 to 0.5)); higher = stronger / more preferred TF binding; most listed sequences are background and not binding sites; settings: protein concentration: 200 nM; construct: GST-full length
T1 sequence: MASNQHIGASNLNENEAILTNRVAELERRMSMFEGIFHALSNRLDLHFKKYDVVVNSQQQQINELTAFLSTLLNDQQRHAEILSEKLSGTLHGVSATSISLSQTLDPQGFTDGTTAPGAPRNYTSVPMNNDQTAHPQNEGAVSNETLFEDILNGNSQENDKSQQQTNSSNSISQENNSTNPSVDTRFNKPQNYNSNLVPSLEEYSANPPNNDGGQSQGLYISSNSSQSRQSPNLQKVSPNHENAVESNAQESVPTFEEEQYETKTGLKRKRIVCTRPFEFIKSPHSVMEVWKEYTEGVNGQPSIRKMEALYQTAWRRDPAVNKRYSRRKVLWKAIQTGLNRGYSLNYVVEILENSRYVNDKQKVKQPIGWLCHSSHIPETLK
How it was run: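 Universal all-10-mer Agilent arrays, fresh or stripped once, were converted to double-stranded form by primer extension. GST-tagged yeast transcription factors from PURExpress in vitro transcription/translation, full-length or DNA-binding domain only, were applied at about 100-200 nM and detected with fluorescent anti-GST. After masliner normalisation, the Universal PBM Analysis Suite scored each ungapped eight-base word together with its reverse complement by E-score.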

Sequence | PBM E-score
CCTCCGAC | -0.135
CTAACACA | 0.097
CCCGAGCC | -0.196
GCTCCTTA | -0.0474
AACTACGA | -0.0234
TCGCCCCA | -0.122
AAGCACTA | -0.14
TATTGGCA | 0.0554
CACTAGGA | -0.0355
ATGTAGAC | 0.128
TAGGATGA | -0.0659
GTATTGTA | 0.0984
ATAGTTAG | 0.0668
AGCATGCA | -0.225
CACTAATA | 0.0713
AGACACCT | 0.0501
CTCAAGAG | -0.239
AGCTCTAA | 0.0441
ATATTGTA | 0.143
CCTTACCG | -0.062
CTGCGACA | 0.238
GGGCTACC | -0.0707
CACACGGA | -0.0548
CAATGATC | 0.0342
ATTGGACA | 0.445

Sequence | PBM E-score
ATAGTACG | 0.0327
CATCGATG | 0.104
AAGCCAAG | -0.237
CCACGGGC | -0.2
AGATTAAC | -0.0305
ATACCAGG | 0.12
AGTTTGAA | 0.117
CTCTCAGC | -0.101
CCCGCTCG | -0.345
GTTTAAGA | -0.0581
ACGCAGAA | -0.00973
ACAATTGA | 0.257
ACCGCAGC | -0.215
CAATAGGG | -0.166
ACCTAGCG | -0.101
ATAGCTGG | -0.0251
AGGGGCGG | -0.382
AAACCCAC | -0.0117
ACATTGTC | 0.411
CGAGTCCC | -0.0566
AAGCCTGC | -0.0718
CACGTAAG | -0.117
CCGCTGTC | 0.0815
AAATTTGC | 0.0627
AAATACTA | 0.0672

Sequence | PBM E-score
ATTGACAA | -0.0686
CCAGCAAA | 0.06
TATACCGA | 0.162
GTCTGGTA | 0.046
GAGGACCC | -0.218
GATGAAGC | -0.0632
TCTACCCA | 0.00996
GGCTCGAA | -0.124
CATGGGTA | 0.0506
ATAATCAG | -0.134
CGTATGAC | 0.0996
ACACGTTA | -0.0199
AAAAATTC | 0.182
AAAAGCAC | -0.15
ACCATAGC | -0.123
TAACAACA | 0.0839
ATTAGCCG | -0.026
CTTGTTGC | 0.0476
CACCTCCA | -0.00802
CACGTGCG | 0.00866
CCCCATAC | -0.182
CCTTGTAC | 0.183
AGTTTTGG | 0.0755
AGCTCAGG | 0.126
AAATCCGA | 0.202

Sequence | PBM E-score
CGTGGTAG | -0.0553
GTGACCTA | 0.0752
CGCTGATC | -0.029
AGCAATTG | 0.00301
ACGCAGCT | 0.055
GCGGTCTA | -0.0194
CCAAGGTC | -0.152
CATCCAGG | -0.157
GGAACCAC | 0.0433
AGCGTATA | -0.00084
AAGCCGGC | -0.0588
ATATACTC | -0.0332
CACTATAA | -0.0316
CATGCGTA | -0.0462
AGGGCATC | -0.258
AATACTAA | 0.124
CCAAGAAA | 0.0697
TGCACGCA | -0.195
AACGTTCA | -0.108
ATCAAAAT | 0.131
GGTAGGAA | -0.137
TAACCGAA | 0.0463
ACGGACTA | 0.114
GGTGAATA | 0.107
AAACAGAC | 0.124

Sequence | PBM E-score
CCGTCGCC | -0.0478
ATCTGATC | -0.064
CGCTTAAG | -0.116
GCAAGTCC | 0.127
AACATGCC | -0.119
ATTACCAA | -0.0223
CCGCTACA | -0.161
GGTACCCA | -0.189
AAGGGCCG | -0.153
CTCGGGCA | 0.0616
AGACCATA | 0.0727
CTTAGTGA | -0.175
ATGACTCC | -0.157
CGAGCCGA | 0.168
AGAAAGCC | -0.0829
ACCCGCGG | 0.0892
CTCTCCTC | -0.0768
CGTTCTAC | -0.157
AGCCTCGA | -0.0675
GCTTACAA | -0.0124
AAAGGGAT | -8e-05
AGTCACCG | -0.173
CAAGAAAA | 0.213
TACCCGCA | -0.0605
CAATGGAG | -0.178

Sequence | PBM E-score
TAATGTAA | 0.114
AGCAGCCA | -0.0979
AGAAACCC | -0.056
CCCTGAAG | -0.267
GACTTGAA | 0.0362
CCCTGGGA | -0.175
CAACTACA | -0.0244
ATGTACCA | 0.316
GCCAGCCA | -0.149
CGGTGGAC | 0.0943
GATGTGAC | -0.104
GATCGATC | -0.321
CACTCGAG | -0.029
CCTCCTCC | -0.227
GACATGGA | 0.342
CCTGGAGA | -0.0962
CCGTAAAG | 0.026
AAATCATG | 0.0666
CTGGTGGA | -0.184
GGCGCCCA | -0.0597
ATTCAGCA | 0.017
CTTTTCAA | 0.151
CAAAGAGC | -0.204
GGAGCCCC | -0.314
GAAAATAC | -0.00969

Sequence | PBM E-score
CCTTGTGC | -0.128
CGCCGAGC | 0.0968
TGCCCCAA | -0.101
CGTAGACA | 0.212
GAGGTTAC | 0.0109
AACGAATG | 0.119
CAGTATAC | -0.0377
CGGGGTTC | -0.187
CAAATACG | 0.106
CTAAATGC | 0.035
GGGGGAAA | -0.249
AAAGGGAA | -0.0591
ATTAGAAG | 0.0235
CAACAGAA | -0.101
ATCCGAGG | 0.0468
AGGTTGCA | -0.0307
CAGGCCAG | 0.0971
CCAGGAGG | -0.158
CAGACAAG | 0.28
GATGGTTA | -0.0513
AAATCGAA | -0.158
CCAAAATA | 0.117
